FireProtDB
Values joined by “and” are separate entries in the source; they are usually repeats but may differ in a detail not shown here. Identical values can stand only once.

Conditions: Gallus gallus, Thermal, DSC, reversible: yes
[1] = pH 3.6, phosphoric acid-sodium phosphate 0.2 M
[2] = pH 4, phosphoric acid-sodium phosphate 0.2 M

## Lysozyme C wild type (sequence not shown)
pH 2.2, HCl-glycine 0.1 M
  Tm: 52.6 °C
  heat capacity change of unfolding: 0.73 kcal/mol/K
  unfolding enthalpy (calorimetric): 94.2 kcal/mol
  unfolding enthalpy (van 't Hoff): 82.2 kcal/mol
pH 2.3, HCl-glycine 0.1 M
  Tm: 56.9 °C
  heat capacity change of unfolding: 2.36 kcal/mol/K
  unfolding enthalpy (calorimetric): 113 kcal/mol
  unfolding enthalpy (van 't Hoff): 111 kcal/mol
pH 2.3, HCl-glycine 0.2 M
  Tm: 52.6 °C
  heat capacity change of unfolding: 0.38 kcal/mol/K
  unfolding enthalpy (calorimetric): 79.1 kcal/mol
  unfolding enthalpy (van 't Hoff): 84.4 kcal/mol
pH 2.4, HCl-glycine 0.2 M
  Tm: 53.1 °C and 53.6 °C
  heat capacity change of unfolding: 1.29 kcal/mol/K and 1.4 kcal/mol/K
  unfolding enthalpy (calorimetric): 76.7 kcal/mol and 99.9 kcal/mol
  unfolding enthalpy (van 't Hoff): 82.2 kcal/mol and 95.4 kcal/mol
pH 2.7, HCl-glycine 0.2 M
  Tm: 56.6 °C and 58.1 °C and 59 °C
  unfolding enthalpy (calorimetric): 90.1 kcal/mol and 93.9 kcal/mol and 97.8 kcal/mol
  unfolding enthalpy (van 't Hoff): 92.7 kcal/mol and 96.1 kcal/mol and 98.2 kcal/mol
pH 2.8, HCl-glycine 0.2 M
  Tm: 60.1 °C
  heat capacity change of unfolding: 0.33 kcal/mol/K
  unfolding enthalpy (calorimetric): 115 kcal/mol
  unfolding enthalpy (van 't Hoff): 104 kcal/mol
pH 3, HCl-glycine 0.2 M
  Tm: 63.1 °C
  heat capacity change of unfolding: 1.18 kcal/mol/K
  unfolding enthalpy (calorimetric): 111 kcal/mol
  unfolding enthalpy (van 't Hoff): 105 kcal/mol
pH 3.1, HCl-glycine 0.2 M
  Tm: 63.5 °C and 65.8 °C
  heat capacity change of unfolding: 1.77 kcal/mol/K and 1.69 kcal/mol/K
  unfolding enthalpy (calorimetric): 108 kcal/mol and 116 kcal/mol
  unfolding enthalpy (van 't Hoff): 103 kcal/mol and 109 kcal/mol
pH 3.2, HCl-glycine 0.2 M
  Tm: 64 °C and 67.2 °C
  heat capacity change of unfolding: 2.58 kcal/mol/K and 1.4 kcal/mol/K
  unfolding enthalpy (calorimetric): 88.9 kcal/mol and 107 kcal/mol
  unfolding enthalpy (van 't Hoff): 98 kcal/mol and 107 kcal/mol
pH 3.3, HCl-glycine 0.2 M
  Tm: 61.1 °C and 63 °C
  unfolding enthalpy (calorimetric): 103 kcal/mol and 105 kcal/mol
  unfolding enthalpy (van 't Hoff): 101 kcal/mol and 108 kcal/mol
pH 3.4, HCl-glycine 0.2 M
  Tm: 69.2 °C
  heat capacity change of unfolding: 1.15 kcal/mol/K
  unfolding enthalpy (calorimetric): 110 kcal/mol
  unfolding enthalpy (van 't Hoff): 110 kcal/mol
pH 3.5, HCl-glycine 0.2 M
  Tm: 70.8 °C
  heat capacity change of unfolding: 2.05 kcal/mol/K
  unfolding enthalpy (calorimetric): 127 kcal/mol
  unfolding enthalpy (van 't Hoff): 116 kcal/mol
pH 3.6, HCl-glycine 0.2 M
  Tm: 71 °C and 72.5 °C
  heat capacity change of unfolding: 1.77 kcal/mol/K and 1.56 kcal/mol/K
  unfolding enthalpy (calorimetric): 123 kcal/mol and 128 kcal/mol
  unfolding enthalpy (van 't Hoff): 114 kcal/mol and 117 kcal/mol
[1]
  Tm: 72.3 °C
  heat capacity change of unfolding: 4.25 kcal/mol/K
  unfolding enthalpy (calorimetric): 116 kcal/mol
  unfolding enthalpy (van 't Hoff): 116 kcal/mol
pH 3.8, HCl-glycine 0.1 M
  Tm: 75.7 °C
  heat capacity change of unfolding: 1.98 kcal/mol/K
  unfolding enthalpy (calorimetric): 114 kcal/mol
  unfolding enthalpy (van 't Hoff): 115 kcal/mol
pH 3.8, HCl-glycine 0.2 M
  Tm: 73.8 °C and 74.5 °C
  heat capacity change of unfolding: 2.8 kcal/mol/K and 2.09 kcal/mol/K
  unfolding enthalpy (calorimetric): 124 kcal/mol and 126 kcal/mol
  unfolding enthalpy (van 't Hoff): 121 kcal/mol and 120 kcal/mol
pH 3.9, HCl-glycine 0.2 M
  Tm: 75 °C and 75.5 °C
  heat capacity change of unfolding: 3.9 kcal/mol/K and 1.68 kcal/mol/K
  unfolding enthalpy (calorimetric): 120 kcal/mol and 110 kcal/mol
  unfolding enthalpy (van 't Hoff): 119 kcal/mol and 117 kcal/mol
[2]
  Tm: 77 °C
  heat capacity change of unfolding: 1.96 kcal/mol/K
  unfolding enthalpy (calorimetric): 117 kcal/mol
  unfolding enthalpy (van 't Hoff): 131 kcal/mol
